Experimental data as given in the supplement of paper PMC8728848.
The list shows a part of the results.

Columns and labels:
Test in all cases: glycan array binding signal (z-score within array); higher = stronger binding
Details in all cases: glycan notation: IUPAC condensed, linker removed; mutation: E227A
Gal(a1-3)Gal(b1-4)GlcNAc = target: Gal(a1-3)Gal(b1-4)GlcNAc
In short: (§1)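 Glycan array data were curated from 3228 arrays in the Consortium for Functional Glycomics database and kept only where the protein sequence was available. Glycan names were converted to IUPAC-condensed notation, and columns mapping to the same glycan were averaged. The binding signal is a within-array Z-score, averaged across arrays of the same protein sequence at different concentrations or buffers and across linkers. Negative Z-scores can be read as non-binding.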

[1] = target: Gal(a1-3)Gal(b1-4)GlcNAc(b1-2)Man
In short: as §1

[2] = target: Gal(a1-3)Gal(b1-4)GlcNAc(b1-2)Man(a1-3)[Gal(a1-3)Gal(b1-4)GlcNAc(b1-2)Man(a1-6)]Man(b1-4)GlcNAc(b1-4)GlcNAc
In short: as §1

[3] = target: Gal(a1-3)Gal(b1-4)GlcNAc(b1-3)GalNAc
In short: as §1

[4] = target: Gal(a1-3)Gal(b1-4)GlcNAc(b1-6)GalNAc
In short: as §1

[5] = target: Gal(a1-3)Gal(b1-4)[Fuc(a1-3)]GlcNAc
In short: as §1

[6] = target: Gal(a1-3)Gal(b1-4)[Fuc(a1-3)]GlcNAc(b1-2)Man(a1-3)[Gal(a1-3)Gal(b1-4)[Fuc(a1-3)]GlcNAc(b1-2)Man(a1-6)]Man(b1-4)GlcNAc(b1-4)GlcNAc
In short: as §1

Gal(a1-3)GalNAc = target: Gal(a1-3)GalNAc
In short: as §1

[7] = target: Gal(a1-3)[Gal(a1-4)]Gal(b1-4)GlcNAc
In short: as §1

[8] = target: Gal(a1-4)Gal(b1-3)GlcNAc(b1-2)Man(a1-3)[Gal(a1-4)Gal(b1-3)GlcNAc(b1-2)Man(a1-6)]Man(b1-4)GlcNAc(b1-4)GlcNAc
In short: as §1

Gal(a1-4)Gal(b1-4)Glc = target: Gal(a1-4)Gal(b1-4)Glc
In short: as §1

Gal(a1-4)Gal(b1-4)GlcNAc = target: Gal(a1-4)Gal(b1-4)GlcNAc
In short: as §1

[9] = target: Gal(a1-4)Gal(b1-4)GlcNAc(b1-2)Man(a1-3)[Gal(a1-4)Gal(b1-4)GlcNAc(b1-2)Man(a1-6)]Man(b1-4)GlcNAc(b1-4)GlcNAc
In short: as §1

[10] = target: Gal(a1-4)Gal(b1-4)GlcNAc(b1-3)Gal(b1-4)Glc
In short: as §1

Gal(a1-4)GlcNAc = target: Gal(a1-4)GlcNAc
In short: as §1

Gal(a1-6)Glc = target: Gal(a1-6)Glc
In short: as §1

Gal(b1-2)Gal = target: Gal(b1-2)Gal
In short: as §1

Gal(b1-3)Gal = target: Gal(b1-3)Gal
In short: as §1

Gal(b1-3)Gal(b1-4)GlcNAc = target: Gal(b1-3)Gal(b1-4)GlcNAc
In short: as §1

Gal(b1-3)GalNAc = target: Gal(b1-3)GalNAc
In short: as §1

[11] = target: Gal(b1-3)GalNAc(a1-3)[Fuc(a1-2)]Gal(b1-4)Glc
In short: as §1

[12] = target: Gal(b1-3)GalNAc(a1-3)[Fuc(a1-2)]Gal(b1-4)GlcNAc
In short: as §1

Gal(b1-3)GalNAc(b1-3)Gal = target: Gal(b1-3)GalNAc(b1-3)Gal
In short: as §1

[13] = target: Gal(b1-3)GalNAc(b1-3)Gal(a1-4)Gal(b1-4)Glc
In short: as §1

[14] = target: Gal(b1-3)GalNAc(b1-4)Gal(b1-4)Glc
In short: as §1

[15] = target: Gal(b1-3)GalNAc(b1-4)[Neu5Ac(a2-3)]Gal(b1-4)Glc
In short: as §1

Gal(b1-3)GlcNAc = target: Gal(b1-3)GlcNAc
In short: as §1

[16] = target: Gal(b1-3)GlcNAc(a1-3)Gal(b1-4)GlcNAc
In short: as §1

[17] = target: Gal(b1-3)GlcNAc(a1-6)Gal(b1-4)GlcNAc
In short: as §1

Gal(b1-3)GlcNAc(b1-2)Man = target: Gal(b1-3)GlcNAc(b1-2)Man
In short: as §1

B1: Epa1-NP-mutant-E227A (Candida glabrata), Q6VBJ0 (protein)
chain: MILNPALFLNKCVCIYTTLILLLLTNGGYATSSNDISLASKDPTTFPLGCSPDITTPKKGLSMELYSYDFRKKGSYPCWDAAYLDPNYPRTGYKSHRLLAKVDGVTGNINFYYHATKGCTPQLGHLPASYNYPKPLTMTNFTMLLYGYFRPKVTGFHTFTISADDLLFVNFGAGNAFDCCRRDSSADHFGNYQAYAIWGSKTAKDELTVHLDAGVYYPIRLFYNNRAYDGALSFTFKTESNENTVSDFSEYFFSLDDTEEGCPGLISYDSSCASVKTSKIIGIDYHTETPNENLVPITKTIYHLGIPCTGTTTTPLCGSGFYDPLANKCVTINTSSTSSVTKTTSHTTSKEVSFHSSISSQKTLIPKSIPSPYGPIKSQSIPTEMETSSEISSSEYAFSDVISTPSHSPYTKKHSSLNSSSYTSTVIHSLTSYSISQGIFSTSLSEQNITSKSSTDKFSTATSMSNNITQSSIIISQFSTNNENYTTTSMHTSSDKISTETLNNSISTTTSILFSNSSTILKNNTTIISSDKDTHYHPVNPTIVCSTNKTEIICASITQPSISNSNNHWSSSVLKFNSTTVRSTLPSSAGSNETSINVPFSSSTESNTSTSSTSTSNSKMVRSTLPSSAGSNETSISVPFSSSTESNTSTSSTSTSNSKMVRSTLPSSAGSNETSINVPFSSSTESNTSTSSTSTSNSKTVRSTPFSSAGIIMTSLSQRNNKSASSYASSNSKCYNTADSCRKVHSTPSYLLTSSYTSEGVDYDCSLVSTKLKINDTNCVNNKHTTKSCLKTSVTTTIPTLEIKTARKSSSNTIGLHSYPTSSPNKSISSAPIIGYISSFKTIKTASPSYQTSDLTTITTITSLNNPGSTAVENTHESNDKSRKTSSNDISSKHSVIKETKDAVESSNKSHQTNTLKCSSIIIASSSHNSYESLGGTTLTLTLSKVYSPQNNDTLPFLEISEVNPSRTVLPESSKMMQYLTSTEERNKTARNTIATNIVSISTFHFEGEGNAIRMGYTQLLLMLIGIIVMNIGT
glycan array binding signal (z-score) (Gal(a1-3)Gal(b1-4)GlcNAc): -0.211
glycan array binding signal (z-score) [1]: -0.219
glycan array binding signal (z-score) [2]: -0.188
glycan array binding signal (z-score) [3]: -0.211
glycan array binding signal (z-score) [4]: -0.203
glycan array binding signal (z-score) [5]: -0.144
glycan array binding signal (z-score) [6]: -0.164
glycan array binding signal (z-score) (Gal(a1-3)GalNAc): -0.191
glycan array binding signal (z-score) [7]: -0.187
glycan array binding signal (z-score) [8]: -0.192
glycan array binding signal (z-score) (Gal(a1-4)Gal(b1-4)Glc): -0.214
glycan array binding signal (z-score) (Gal(a1-4)Gal(b1-4)GlcNAc): -0.17
glycan array binding signal (z-score) [9]: -0.176
glycan array binding signal (z-score) [10]: -0.205
glycan array binding signal (z-score) (Gal(a1-4)GlcNAc): -0.091
glycan array binding signal (z-score) (Gal(a1-6)Glc): -0.062
glycan array binding signal (z-score) (Gal(b1-2)Gal): -0.041
glycan array binding signal (z-score) (Gal(b1-3)Gal): 0.926
glycan array binding signal (z-score) (Gal(b1-3)Gal(b1-4)GlcNAc): 2.03
glycan array binding signal (z-score) (Gal(b1-3)GalNAc): 1.28
glycan array binding signal (z-score) [11]: 0.456
glycan array binding signal (z-score) [12]: 1.05
glycan array binding signal (z-score) (Gal(b1-3)GalNAc(b1-3)Gal): 0.925
glycan array binding signal (z-score) [13]: 0.447
glycan array binding signal (z-score) [14]: 3.42
glycan array binding signal (z-score) [15]: 1.23
glycan array binding signal (z-score) (Gal(b1-3)GlcNAc): 0.369
glycan array binding signal (z-score) [16]: -0.187
glycan array binding signal (z-score) [17]: -0.057
glycan array binding signal (z-score) (Gal(b1-3)GlcNAc(b1-2)Man): 0.122
